The supplement of paper PMC10126150
Sequences with one replicate were seen in a single cluster, so their values are uncertain.

System: ATP
Experiment: switch fluorescence ratio, 500 uM ATP over buffer (Cy3 cluster intensity, sum of 5 cycles each) (fold (ratio)); higher = stronger signal-on switching upon ATP binding; sequences stand for … in TCGTCGGCAGCGTCAGATGTGTATAAGAGACAGTTTTTTTTTTTTTTTTTTTTTTTTT…TC
Details: aptamer strand: ATP DNA aptamer (quencher-CACCTGGGGGAGTATTGCGGAGGAAGG + anchor), 100 nM annealed; ATP concentration: 500 uM; one replicate
Outline: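 The fluorescence ratio divides summed target-cycle Cy3 intensity by summed buffer-cycle Cy3 intensity for each cluster and is averaged per switch-domain sequence. Cy3-labelled switching-strand clusters on a modified Illumina MiSeq flow-cell were annealed to 100 nM quencher-labelled ATP aptamer, then imaged in selection buffer and again after 15 min with 500 uM ATP at 22 °C. Five such cycles were run, with NaOH stripping and re-annealing between them, and clusters outside 100-1000 RFU were excluded.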
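Also: ATP exposure 15 min at 22 °C before imaging.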

Sequence | switch fluorescence ratio
CACGAGCGGT | 1.1
TGACTGGGT | 0.983
CTTGATCTAA | 1.01
TTTGTCTCAT | 1
AGACGGGTGT | 1.03
CGTGGGGCGC | 0.992
CACTTTTCAT | 1.04
TTACAAATAC | 1.31
TCCAATGAGT | 0.998
AACGGAAACA | 1.06
ACAGAAAAGT | 1.04
CTGCGGTGGC | 1.04
AGAACGTACG | 1.29
GGACACACCC | 1.4
CTCATATATG | 0.982
CAATTTCCGT | 0.988
CAAACACGTC | 0.965
CTCACTTACG | 1.55
ACCCATTTTC | 1.05
CTCGTATGT | 0.981
GGTATAAGA | 1.09
CTAGTCTGAT | 1
GTGTTATATG | 1.02
AGGACGTGCA | 1.02
AAAAAAACCG | 1.18
ACAGCTATTT | 1.06

Sequence | switch fluorescence ratio
CATCGATGTA | 0.977
TGTTTATGCC | 1.03
GAGTGACGCC | 1.03
GGGTAGGCAC | 1.01
ATGTAGCCCC | 0.997
AGAAGAGCAC | 1.03
GCTGAGCAAT | 1.39
GCGGCCCGAA | 1.02
GAAGGACCCC | 1.01
CCCCAGCTAA | 3.23
CGTTTAACTG | 1.13
CCCGGTGGAA | 0.945
ATCATAAGAG | 1.02
GTTTCGGAGG | 0.991
TAATAGACTT | 1.03
GCGTGATCCG | 0.92
CAGGATCTGG | 1.01
TGTGTTCAGC | 0.981
TTCCTCTCGT | 1.09
TTATATTGAA | 1.04
CGATGCGAA | 1.14
TGATGACTGG | 0.935
GGGAGGAAA | 0.96
TCAGCTAGAG | 1
CGGAGTACGC | 1.32
TCTCAGACGG | 0.983

Sequence | switch fluorescence ratio
TCATTGGTCA | 0.988
GAGGGAAACC | 0.937
TGAGTGTCAG | 0.961
TTCGCCATGA | 1.06
CACTCCCCCT | 3.03
AACCTCATCG | 1.09
CACTCGGTTT | 1.11
CGAGCCTGCA | 0.998
AATCTAGAAG | 1.01
TTGGTACCCG | 1.05
ATGGTTAGTC | 1.02
CACAAAACAA | 1.01
CAGGGAGTCT | 0.994
ATAGGTGAGT | 1.04
TTGAACCATT | 1
TAGAGAAAAA | 1.01
GGTTGATCGC | 0.966
ACGTAATTTG | 1.16
TTCTGCGCGG | 1.07
TCTGTGCCGC | 1.08
GAGGAGGCAT | 1.01
TCACCAGGTC | 2.57
TTGAACCAGC | 1.03
GCCCGGTCCA | 1
CATTATCTTT | 1
TTATGTGAAC | 1.03

Sequence | switch fluorescence ratio
CAAAGTCCAA | 1.02
ATGCAAAACC | 1.17
ATACTTGATC | 1.02
ACTAACCCCC | 1.51
CTCTTGCTAC | 5.9
TAATACCCGT | 1.01
ATCCAAGGGC | 1.06
ATTCTTTGCG | 0.957
GCAATGGCGG | 1.04
ACGCGATGGT | 1.08
ACGGCGGTGA | 1.01
GGGGTTGTAT | 1.02
CATCCGCGTG | 1.77
CAGTAGTCAG | 0.978
AGGGAGCATC | 1.02
GTGCATTAAC | 1.28
GGGGCGGAGC | 1.01
GACACGCACT | 1.7
TTTGAAAAAT | 1.01
CTCGCCCCCT | 1.13
CAGATTGAGT | 1.01
AACAGAGAC | 1.03
CTTGGGTGGC | 0.972
AACACTTGTG | 1.05
GACCGGTTT | 0.994
GTGGTTCACT | 0.991

Sequence | switch fluorescence ratio
ACGGGCCTGC | 1.09
GAGTCCACGG | 1.01
ATCCGACGGG | 1.12
ATTGGAACTC | 1.04
AGGTTACAC | 0.992
AGGTTAGCAT | 0.976
TGTGAACGTT | 0.997
GCCTGAACGT | 0.981
ATGTTTTGCG | 0.967
ACATAACCGG | 1.06
TTCCATTC | 1.01
AAGTCGAAGG | 1.02
GGGTCGTGCG | 1
GCGCTACGGT | 1.1
CGCTATCACC | 2.09
TATAGCTC | 1.02
ATGTTGTGAT | 1.01
AGATCGATGT | 0.961
GGCCCTATTT | 0.939
AGGGCAGCAG | 1.05
TCGAGTTTTA | 1.07
AACCGGCAGG | 1
TTAACAAAT | 0.966
GACCATCGAT | 0.995
TGTTCGTCTA | 1.04
TTGACCCAAG | 0.992

Sequence | switch fluorescence ratio
CCATTTTACC | 1
CGATTAGACC | 1.03
GAGGTGTGAA | 0.955
CTTCTCTGGT | 0.958
AAGGTCCGTC | 1.03
GACATAACTG | 0.946
CGCCAATCAG | 1.05
TATGGATAG | 1.01
CAGCGAGCAG | 0.999
CAATCAGGAA | 1.07
GGAAGCTACC | 1.2
TATTGGACTT | 0.998
GTTAGAACCA | 0.968
CGCTGTGGTA | 0.995
GGCGGTGTA | 0.999
ACTCCTGCTG | 1.39
TCAAACAGAG | 1.03
TTGGCGGACT | 0.992
CTCCGTAGA | 5.19
CTATGCCGTG | 1.01
GCCTGCAATT | 1.1
ACGTCATTTA | 1.17
GAGAAGTGAA | 1.01
TGGCGCAGG | 1.03
GCGACTGTTC | 1.02
AGGCACCGGA | 1.03

Sequence | switch fluorescence ratio
TCCATCACGC | 1.28
TCCGGAAGAT | 1.01
TGTTCTTAGC | 1.01
CTGAAATTCG | 1
GAGGGCGAAA | 1.04
CGCGGAATT | 1.03
AAATCGGGGA | 0.994
ATTGGACAT | 0.939
ACATCCTAAT | 0.987
TTCGGAGAT | 1.07
CTGCCCCCCG | 3.08
TGGTTAGTGA | 0.995
CCGGTTTGAT | 1.04
TAAGCGCTG | 0.983
AGAAACAACG | 1.04
ACGTACGGG | 1.67
CCCGGCACCG | 1.03
TAGCTGTTC | 1.1
ACAGATAACG | 1.06
AAATTCAGG | 1.02
TCGAAACCAT | 1.05
GCAGCAGTCT | 1.08
TTTTTACGCC | 1.03
GCGGGTAGGC | 0.983
GTGTCGTAGG | 1.02
TGTGGGCA | 0.999

Sequence | switch fluorescence ratio
CGCCTAAGAA | 0.957
GGGTGCGGAT | 1.02
AATGAGTGCG | 0.989
AAAGAGGTAT | 1.03
ACTGAGAAAG | 1.07
CGTACCCTGC | 0.938
TAGAAGGCAA | 1.1
CGTTACTCGC | 1.2
AAGCGCCAAG | 1.04
TCGAAGTGCA | 0.957
CTCGGAGCCA | 1.09
TTATGACTTT | 1.01
AAAGATAAAG | 0.981
GTGAGCAGG | 1.02
TTAGAACGGC | 0.92
CTCTACAACT | 1.03
AGAATTTCGG | 0.954
TCGTGCCGAG | 1.02
GGGTAGAAGC | 0.985
